Laboratory results from patent publication US20100210562A1, “USE OF IL-1 RECEPTOR PEPTIDE, ALONE OR IN COMBINATION WITH D-ALA-GLN-OCTADECYL ESTER, AS A THERAPEUTIC AGENT” (priority 2007, published 2010).
Where no end group is shown, it is not given here.

Test system: HIV-1IIIB
Experiment: HIV-1 antiviral (CPE reduction) assay in CEM-SS cells
Details: 10 micrograms per ml; 6 days post-infection; MTS readout

Substance | reduction of the cytopathic effect (CPE) in HIV-1 infected CEM-SS cells
D-Ala-Gln-octadecyl ester [Peptide 2] | 100%
Lys-Ile-Cys-Ile-Arg-Ile-Gln-Ile-Ser-OH (KICIRIQIS-OH) [Peptide 1] | 100%
